# Some of the results follow.
# B1: SP16664B-bot-474-25-474 (Bacteroides ovatus) (protein)
# chain: CEEDIEIGNKIDESSYLASTQLSGLLLDENTNKNSSVIELRNNEYSTNVVFRLSKLPQKGVDVQIAVEESYAAIYNTIHETDFEVFPAANVKIANNGTFVLAPDDKVTPSVKVTLTAFDGMEEDKTYIVPLTVTSSTEGVTFTETSKHMVLLVQDYRNKPNTNKGEDAVQTVLYFEVNDTNPLNALEFLTESGKYFFDHIVLFAANINWDPEKQRVYLANNENVQFLLDNNDKYLQPLRKAGMKIIISILGNHDEAGVAQLSDMGAREFARELAAYCRAYNLDGVAFDDEYSNSPDLSNPWLASPSAYAGSRLMYECKAVMPEKIVSLYNLGNMYSSSLQVIDGIEPGQYCDYAVADYGGAAGPGTGMTLKQCAGMSIELRRGSGNSSESTARSRKEAGYGYYMFFALDPSLYGSQVYRCQSVCKGLYDETLVYPSYYYKKNSTEREAIN
# Legend:
# Assay in all cases: glycan array binding signal (z-score within array); higher = stronger binding
# Settings in all cases: glycan notation: IUPAC condensed, linker removed
# [1] = molecular target: Neu5Ac(a2-3)Gal6S(b1-4)[Fuc(a1-3)]GlcNAc
# How it was run: (§1)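 Arrays were curated from the Consortium for Functional Glycomics database, 3228 in total, and kept only where the protein sequence was available. Binding is expressed as a within-array Z-score. This score was averaged across arrays of the same protein sequence at different concentrations or buffers and across linkers, and negative values can be read as non-binding.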
# Neu5Ac(a2-3)GalNAc = molecular target: Neu5Ac(a2-3)GalNAc
# How it was run: as §1
# [2] = molecular target: Neu5Ac(a2-3)GalNAc(b1-4)GlcNAc
# How it was run: as §1
# [3] = molecular target: Neu5Ac(a2-3)[GalNAc(b1-4)]Gal(b1-4)Glc
# How it was run: as §1
# [4] = molecular target: Neu5Ac(a2-3)[GalNAc(b1-4)]Gal(b1-4)GlcNAc
# How it was run: as §1
# [5] = molecular target: Neu5Ac(a2-3)[GalNAc(b1-4)]Gal(b1-4)GlcNAc(b1-3)GalNAc
# How it was run: as §1
# [6] = molecular target: Neu5Ac(a2-3)[Neu5Ac(a2-6)]GalNAc
# How it was run: as §1
# Neu5Ac(a2-6)Gal = molecular target: Neu5Ac(a2-6)Gal
# How it was run: as §1
# [7] = molecular target: Neu5Ac(a2-6)Gal(b1-3)GlcNAc(b1-3)[Gal(b1-4)GlcNAc(b1-6)]Gal(b1-4)Glc
# How it was run: as §1
# Neu5Ac(a2-6)Gal(b1-4)Glc = molecular target: Neu5Ac(a2-6)Gal(b1-4)Glc
# How it was run: as §1
# [8] = molecular target: Neu5Ac(a2-6)Gal(b1-4)GlcNAc
# How it was run: as §1
# [9] = molecular target: Neu5Ac(a2-6)Gal(b1-4)GlcNAc(b1-2)Man
# How it was run: as §1
# [10] = molecular target: Neu5Ac(a2-6)Gal(b1-4)GlcNAc(b1-2)Man(a1-3)Man(b1-4)GlcNAc(b1-4)GlcNAc
# How it was run: as §1
# [11] = molecular target: Neu5Ac(a2-6)Gal(b1-4)GlcNAc(b1-2)Man(a1-3)[Gal(b1-4)GlcNAc(b1-2)Man(a1-6)]Man(b1-4)GlcNAc(b1-4)GlcNAc
# How it was run: as §1
# [12] = molecular target: Neu5Ac(a2-6)Gal(b1-4)GlcNAc(b1-2)Man(a1-3)[GlcNAc(b1-2)Man(a1-6)]Man(b1-4)GlcNAc(b1-4)GlcNAc
# How it was run: as §1
# [13] = molecular target: Neu5Ac(a2-6)Gal(b1-4)GlcNAc(b1-2)Man(a1-3)[GlcNAc(b1-4)][Neu5Ac(a2-6)Gal(b1-4)GlcNAc(b1-2)Man(a1-6)]Man(b1-4)GlcNAc(b1-4)GlcNAc
# How it was run: as §1
# [14] = molecular target: Neu5Ac(a2-6)Gal(b1-4)GlcNAc(b1-2)Man(a1-3)[Man(a1-6)]Man(b1-4)GlcNAc(b1-4)GlcNAc
# How it was run: as §1
# [15] = molecular target: Neu5Ac(a2-6)Gal(b1-4)GlcNAc(b1-2)Man(a1-3)[Neu5Ac(a2-3)Gal(b1-4)GlcNAc(b1-2)Man(a1-6)]Man(b1-4)GlcNAc(b1-4)GlcNAc
# How it was run: as §1
# [16] = molecular target: Neu5Ac(a2-6)Gal(b1-4)GlcNAc(b1-2)Man(a1-3)[Neu5Ac(a2-6)Gal(b1-4)GlcNAc(b1-2)Man(a1-6)]Man(b1-4)GlcNAc(b1-4)GlcNAc
# How it was run: as §1
# [17] = molecular target: Neu5Ac(a2-6)Gal(b1-4)GlcNAc(b1-2)Man(a1-3)[Neu5Ac(a2-6)Gal(b1-4)GlcNAc(b1-2)Man(a1-6)]Man(b1-4)GlcNAc(b1-4)[Fuc(a1-6)]GlcNAc
# How it was run: as §1
# [18] = molecular target: Neu5Ac(a2-6)Gal(b1-4)GlcNAc(b1-2)Man(a1-6)Man(b1-4)GlcNAc(b1-4)GlcNAc
# How it was run: as §1
# [19] = molecular target: Neu5Ac(a2-6)Gal(b1-4)GlcNAc(b1-2)Man(a1-6)[Gal(b1-4)GlcNAc(b1-2)Man(a1-3)]Man(b1-4)GlcNAc(b1-4)GlcNAc
# How it was run: as §1
# [20] = molecular target: Neu5Ac(a2-6)Gal(b1-4)GlcNAc(b1-2)Man(a1-6)[GlcNAc(b1-2)Man(a1-3)]Man(b1-4)GlcNAc(b1-4)GlcNAc
# How it was run: as §1
# [21] = molecular target: Neu5Ac(a2-6)Gal(b1-4)GlcNAc(b1-2)Man(a1-6)[Man(a1-3)]Man(b1-4)GlcNAc(b1-4)GlcNAc
# How it was run: as §1
# [22] = molecular target: Neu5Ac(a2-6)Gal(b1-4)GlcNAc(b1-2)[Neu5Ac(a2-6)Gal(b1-4)GlcNAc(b1-4)]Man(a1-3)[GlcNAc(b1-4)][Neu5Ac(a2-6)Gal(b1-4)GlcNAc(b1-2)[Neu5Ac(a2-6)Gal(b1-4)GlcNAc(b1-6)]Man(a1-6)]Man(b1-4)GlcNAc(b1-4)GlcNAc
# How it was run: as §1
# [23] = molecular target: Neu5Ac(a2-6)Gal(b1-4)GlcNAc(b1-2)[Neu5Ac(a2-6)Gal(b1-4)GlcNAc(b1-4)]Man(a1-3)[GlcNAc(b1-4)][Neu5Ac(a2-6)Gal(b1-4)GlcNAc(b1-4)Man(a1-6)]Man(b1-4)GlcNAc(b1-4)GlcNAc
# How it was run: as §1
# [24] = molecular target: Neu5Ac(a2-6)Gal(b1-4)GlcNAc(b1-2)[Neu5Ac(a2-6)Gal(b1-4)GlcNAc(b1-6)]Man(a1-6)[Neu5Ac(a2-6)Gal(b1-4)GlcNAc(b1-2)Man(a1-3)][GlcNAc(b1-4)]Man(b1-4)GlcNAc(b1-4)GlcNAc
# How it was run: as §1
# [25] = molecular target: Neu5Ac(a2-6)Gal(b1-4)GlcNAc(b1-3)Gal(b1-3)GlcNAc
# How it was run: as §1
# [26] = molecular target: Neu5Ac(a2-6)Gal(b1-4)GlcNAc(b1-3)Gal(b1-4)GlcNAc
# How it was run: as §1
# [27] = molecular target: Neu5Ac(a2-6)Gal(b1-4)GlcNAc(b1-3)Gal(b1-4)GlcNAc(b1-2)Man(a1-3)[Neu5Ac(a2-6)Gal(b1-4)GlcNAc(b1-3)Gal(b1-4)GlcNAc(b1-2)Man(a1-6)]GalNAc
# How it was run: as §1
# [28] = molecular target: Neu5Ac(a2-6)Gal(b1-4)GlcNAc(b1-3)Gal(b1-4)GlcNAc(b1-3)Gal(b1-4)GlcNAc
# How it was run: as §1
# [29] = molecular target: Neu5Ac(a2-6)Gal(b1-4)GlcNAc(b1-3)Gal(b1-4)GlcNAc(b1-3)Gal(b1-4)GlcNAc(b1-2)Man(a1-3)[Neu5Ac(a2-6)Gal(b1-4)GlcNAc(b1-3)Gal(b1-4)GlcNAc(b1-3)Gal(b1-4)GlcNAc(b1-2)Man(a1-6)]GalNAc
# How it was run: as §1
# [30] = molecular target: Neu5Ac(a2-6)Gal(b1-4)GlcNAc(b1-3)Gal(b1-4)GlcNAc(b1-3)GalNAc
# How it was run: as §1
# [31] = molecular target: Neu5Ac(a2-6)Gal(b1-4)GlcNAc(b1-3)Gal(b1-4)GlcNAc(b1-3)[Neu5Ac(a2-6)Gal(b1-4)GlcNAc(b1-3)Gal(b1-4)GlcNAc(b1-6)]GalNAc
# How it was run: as §1
# [32] = molecular target: Neu5Ac(a2-6)Gal(b1-4)GlcNAc(b1-3)Gal(b1-4)GlcNAc(b1-6)[Gal(b1-3)]GalNAc
# How it was run: as §1
# [33] = molecular target: Neu5Ac(a2-6)Gal(b1-4)GlcNAc(b1-3)Gal(b1-4)[Fuc(a1-3)]GlcNAc(b1-3)Gal(b1-4)[Fuc(a1-3)]GlcNAc
# How it was run: as §1
# [34] = molecular target: Neu5Ac(a2-6)Gal(b1-4)GlcNAc(b1-3)GalNAc
# How it was run: as §1
binder,measurement,setting,value
B1,glycan array binding signal (z-score),[1],-0.312
same,glycan array binding signal (z-score),Neu5Ac(a2-3)GalNAc,-0.346
same,glycan array binding signal (z-score),[2],-0.065
same,glycan array binding signal (z-score),[3],-0.205
same,glycan array binding signal (z-score),[4],-0.21
same,glycan array binding signal (z-score),[5],0.051
same,glycan array binding signal (z-score),[6],-0.511
same,glycan array binding signal (z-score),Neu5Ac(a2-6)Gal,0.54
same,glycan array binding signal (z-score),[7],-0.216
same,glycan array binding signal (z-score),Neu5Ac(a2-6)Gal(b1-4)Glc,-0.109
same,glycan array binding signal (z-score),[8],0.101
same,glycan array binding signal (z-score),[9],-0.198
same,glycan array binding signal (z-score),[10],-0.046
same,glycan array binding signal (z-score),[11],0.54
same,glycan array binding signal (z-score),[12],-0.166
same,glycan array binding signal (z-score),[13],-0.144
same,glycan array binding signal (z-score),[14],-0.56
same,glycan array binding signal (z-score),[15],0.227
same,glycan array binding signal (z-score),[16],-0.081
same,glycan array binding signal (z-score),[17],0.132
same,glycan array binding signal (z-score),[18],-0.494
same,glycan array binding signal (z-score),[19],-0.247
same,glycan array binding signal (z-score),[20],-0.007
same,glycan array binding signal (z-score),[21],-0.485
same,glycan array binding signal (z-score),[22],-0.005
same,glycan array binding signal (z-score),[23],0.138
same,glycan array binding signal (z-score),[24],0.144
same,glycan array binding signal (z-score),[25],-0.218
same,glycan array binding signal (z-score),[26],-0.15
same,glycan array binding signal (z-score),[27],0.926
same,glycan array binding signal (z-score),[28],-0.225
same,glycan array binding signal (z-score),[29],0.91
same,glycan array binding signal (z-score),[30],-0.058
same,glycan array binding signal (z-score),[31],1.36
same,glycan array binding signal (z-score),[32],-0.063
same,glycan array binding signal (z-score),[33],0.069
same,glycan array binding signal (z-score),[34],-0.034

# Source: the supplement of paper PMC8728848
